Measured values reported in the supplement of paper PMC3694890.
± gives the uncertainty stated by the source. The list shows a part of the results. A small y stands for phosphotyrosine.

Target: GRB2 (endogenous complexes from cell lysate), P62993
Experiment: GRB2 complex binding differential signal (pY peptide minus Ala control peptide) (fluorescence intensity units); higher = stronger GRB2 complex binding
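Also: phosphopeptide probes on the chip at 1–4 µM, lysate proteins bound in 20 mM Tris pH 7.0 buffer with 140 mM NaCl, 1% Triton X-100 and 5% glycerol.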

Row | Binder | GRB2 complex binding differential signal (MCF7) | GRB2 complex binding differential signal (MCF10A) | GRB2 complex binding differential signal (MDA-MB-231) | GRB2 complex binding differential signal (T47D)
1 | yKANEN [MUSK_756/A1] | 1730 ± 660 | 3910 ± 1600 | 1070 ± 410 | 243 ± 2100
2 | yLDVLG [NTRK1_791/A1] | 181 ± 300 | 176 ± 140 | 354 ± 280 | 99.2 ± 920
3 | ySSLKE [P85A_688/A1] | 1120 ± 290 | 1680 ± 640 | 822 ± 330 | 188 ± 930
4 | ySLVED [P85A_607/A1] | 346 ± 490 | 259 ± 210 | 759 ± 330 | 
5 | yLMWLT [P85A_580/A1] | -5.51 ± 250 | 13.8 ± 120 | 639 ± 320 | 106 ± 860
6 | ySTDYY [NTRK1_676/A1] | 44.5 ± 150 | 320 ± 390 | 662 ± 340 | 805 ± 1200
7 | yFINEE [P55G_341/A1] | 155 ± 430 | 1470 ± 1400 | 508 ± 350 | 66.5 ± 1000
8 | yDKLKS [P85A_530/A1] | 634 ± 190 | 521 ± 530 | 1070 ± 340 | 837 ± 940
9 | yFRQGH [NTRK3_516/A1] | 553 ± 220 | 88.2 ± 310 | 229 ± 280 | 184 ± 820
10 | yYKANE [MUSK_755/A1] | 935 ± 750 | 1150 ± 320 | 741 ± 380 | 690 ± 990
11 | yDLNIP [NCK2_110/A1] | 921 ± 540 | 678 ± 320 | 477 ± 440 | 536 ± 1000
12 | yIEKFK [P85A_508/A1] | 1280 ± 1400 | 997 ± 200 | 436 ± 530 | 495 ± 890
13 | yKRKAN [OSTP_246/A1] | 78.9 ± 160 | 15.5 ± 140 | 913 ± 360 | 227 ± 1000
14 | yYRLFN [NTRK3_709/A1] | 316 ± 160 | 176 ± 200 | 1080 ± 450 | 861 ± 1000
15 | yFSDAC [NTRK1_496/A1] | 437 ± 1200 | 190 ± 180 | 401 ± 260 | 80.5 ± 870
16 | yYVRDG [MUSK_813/A1] | 397 ± 740 | 350 ± 270 | 362 ± 250 | 389 ± 950
17 | yIRPSL [NCK1_268/A1] | 11500 ± 3500 | 4080 ± 710 | 1500 ± 430 | 3170 ± 1400

Row | Binder | GRB2 complex binding differential signal (MCF7) | GRB2 complex binding differential signal (MCF10A) | GRB2 complex binding differential signal (MDA-MB-231) | GRB2 complex binding differential signal (T47D)
18 | yFGITN [NTRK2_516/A1] | 124 ± 330 | 210 ± 230 | 810 ± 260 | 596 ± 740
19 | yRLFNP [NTRK3_710/A1] | 498 ± 410 | 44.8 ± 170 | 637 ± 460 | 161 ± 1100
20 | yKLEK [MYH11_1415 /A1] | 1400 ± 370 | 1350 ± 390 | 1260 ± 370 | 1960 ± 890
21 | yRVGGH [NTRK2_707/A1] | 1380 ± 410 | 1130 ± 480 | 286 ± 280 | 21.2 ± 740
22 | yRVGGR [NTRK1_681/A1] | 1410 ± 360 | 669 ± 210 | 150 ± 270 | 
23 | yEDTIL [ALK_1604/A1] | 278 ± 200 | 328 ± 210 | 476 ± 420 | 699 ± 1000
24 | yEEYTR [P85A_467/A1] | 650 ± 280 | -142 ± 670 | 864 ± 410 | 509 ± 1000
25 | yAIMRG [NTRK1_757/A1] | 1980 ± 600 | 1230 ± 250 | 293 ± 270 | 994 ± 2400
26 | yDLNMP [NCK1_105/A1] | 771 ± 230 | 274 ± 260 | 783 ± 360 | 1660 ± 1200
27 | yGYQQQ [ALK_1584/A1] | 421 ± 270 | -1170 ± 750 | 320 ± 530 | 220 ± 920
28 | yLELGG [AT1A1_542/A1] | -132 ± 720 | 154 ± 230 | 450 ± 250 | 331 ± 1200
29 | yKFGHT [MYH3_757/A1] | 99.1 ± 280 | 169 ± 160 | 230 ± 330 | 27.8 ± 1200
30 | yREIDK [P85A_556/A1] | 1460 ± 490 | 1250 ± 260 | 971 ± 330 | 913 ± 1100
31 | yYRVGG [NTRK1_680/A1] | 3350 ± 600 | 1020 ± 270 | 301 ± 280 | 375 ± 1200
32 | yLDILG [NTRK2_817/A1] | -107 ± 290 | 64.5 ± 150 | 216 ± 310 | 125 ± 1200
33 | yNTQFQ [P85A_452/A1] | -1570 ± 4900 | 582 ± 310 | -978 ± 3900 | 252 ± 930
